# In all, about 33,000 sequences were measured (“E-score (-0.5 to 0.5)”: median about -0.043, highest 2% from about 0.37 on). This is one part of the list.
# Molecular target: T1, Upc2 (UniProt Q12151)
# T1 sequence: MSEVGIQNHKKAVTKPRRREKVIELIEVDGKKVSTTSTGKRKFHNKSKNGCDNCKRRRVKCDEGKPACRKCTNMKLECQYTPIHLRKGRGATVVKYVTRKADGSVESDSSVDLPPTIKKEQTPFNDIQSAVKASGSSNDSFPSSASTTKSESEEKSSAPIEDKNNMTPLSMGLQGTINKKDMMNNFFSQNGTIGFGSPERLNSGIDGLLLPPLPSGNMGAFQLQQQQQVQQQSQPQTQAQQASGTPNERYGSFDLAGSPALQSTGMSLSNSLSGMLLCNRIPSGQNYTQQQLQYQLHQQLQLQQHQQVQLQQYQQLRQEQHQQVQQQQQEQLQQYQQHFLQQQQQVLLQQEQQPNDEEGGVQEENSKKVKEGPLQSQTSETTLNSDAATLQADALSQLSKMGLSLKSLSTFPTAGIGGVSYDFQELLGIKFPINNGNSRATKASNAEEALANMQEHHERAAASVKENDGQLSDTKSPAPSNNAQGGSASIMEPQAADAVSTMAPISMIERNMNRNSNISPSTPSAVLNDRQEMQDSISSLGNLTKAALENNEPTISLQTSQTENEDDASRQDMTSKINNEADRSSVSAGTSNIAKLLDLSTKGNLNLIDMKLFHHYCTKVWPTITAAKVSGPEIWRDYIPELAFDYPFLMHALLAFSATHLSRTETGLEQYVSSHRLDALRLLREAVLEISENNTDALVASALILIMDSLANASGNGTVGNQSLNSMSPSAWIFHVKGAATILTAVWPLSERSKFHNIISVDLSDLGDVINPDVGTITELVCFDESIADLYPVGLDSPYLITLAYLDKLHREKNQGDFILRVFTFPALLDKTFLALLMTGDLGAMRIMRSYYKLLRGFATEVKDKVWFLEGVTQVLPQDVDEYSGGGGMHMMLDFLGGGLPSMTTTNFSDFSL
# Test: PBM E-score (8-mer binding enrichment) (E-score (-0.5 to 0.5)); higher = stronger / more preferred TF binding; most listed sequences are background and not binding sites
# Conditions: protein concentration: 200 nM; construct: GST-full length
# Outline: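 The E-score, a modified Wilcoxon-Mann-Whitney statistic, was computed by the Universal PBM Analysis Suite for every ungapped eight-base word pooled with its reverse complement. Scans behind it were normalised with masliner after bound GST-tagged yeast transcription factors were detected with fluorescent anti-GST. The proteins, at about 100-200 nM, had been applied to universal all-10-mer Agilent arrays made double-stranded by primer extension.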
row,Sequence,PBM E-score
1,CGAGGTGC,0.137
2,GCTAGCTA,0.0155
3,GGTTAGAA,0.00038
4,TACTAGAA,-0.0343
5,ATTATATC,0.051
6,GAGCCCAA,-0.11
7,CATGCACC,-0.179
8,CTCGAGTC,-0.195
9,ATGGAGAC,-0.101
10,CGGTATTC,-0.00151
11,AAAGTTAT,0.0721
12,CCAGATAG,-0.246
13,GGTATGAA,0.0119
14,GGGTTGCA,-0.0944
15,AAGATTGC,-0.0519
16,CTGCGTGA,-0.271
17,TATCCCGA,0.0238
18,CAGGTCTC,-0.172
19,CAAAAAGC,-0.015
20,CGCGCGGC,0.108
21,ATCTTAAC,0.198
22,ATTGTCCA,-0.102
23,AACAATTC,-0.164
24,AGGTTTAG,-0.00217
25,CGGAGTCA,-0.11

row,Sequence,PBM E-score
1,AGTATAAC,0.172
2,CAGGGCCG,-0.134
3,ATTGCTGC,-0.0333
4,CAACCCTC,-0.105
5,GGTTAACA,-0.00714
6,CCCGGCTA,-0.14
7,CTATTAAA,-0.0577
8,CCTGGCAC,-0.155
9,AATTAGTG,-0.0508
10,GAATCCCA,-0.126
11,TCGTTCAA,0.459
12,ACAGATTA,-0.111
13,AGGATGCC,-0.223
14,AGTAGAAC,-0.0654
15,ACCTTAGA,-0.132
16,AGAAGCTG,-0.0427
17,AGCATTCG,-0.025
18,ATCATAAC,0.0132
19,GGATCTTA,0.146
20,CTAGAAGC,-0.155
21,CCAGTAGA,-0.0976
22,GAGCGTCC,-0.00382
23,AATGGACG,-0.0583
24,AGAGTCGC,0.0951
25,ACTCCTAG,-0.306

row,Sequence,PBM E-score
1,ATGACACC,0.0439
2,TCGGAACA,0.107
3,GGGGCTGA,-0.151
4,ATCGATTA,0.162
5,GCACTACA,-0.104
6,ACGTATCT,0.0906
7,CCAATGCC,-0.221
8,AATGTTGG,-0.12
9,GAAACCGC,0.0439
10,ATTTAACG,0.387
11,AAGGGCCT,-0.392
12,CGTAGCCC,0.213
13,AATGGTGC,-0.0257
14,AGGGGGGA,-0.206
15,ATTCTTCA,-0.00023
16,CACTGGGA,-0.199
17,TAGTTCCA,-0.198
18,AATATCTG,-0.124
19,CTGATGTC,-0.118
20,ACTGAACC,0.042
21,AACGGCGA,0.363
22,GGGCATCA,-0.295
23,CGGTACAC,-0.0353
24,GACTGATA,-0.216
25,AGCTCCGC,-0.0544

row,Sequence,PBM E-score
1,AACAAGAC,0.0159
2,ACTAACGC,0.0466
3,AGGTTTGC,-0.0369
4,ACTATGGC,-0.0976
5,GGTGCGCA,0.0199
6,ACAGATGT,-0.0314
7,GCGCGCGA,0.162
8,ACTTGGAG,-0.2
9,AGTCGACT,0.0522
10,GACGAAAC,0.251
11,ACATTCCC,-0.0778
12,AGTGTGGA,-0.244
13,ATTCGACG,0.0604
14,ATACCCAC,-0.0254
15,TATTCAAA,0.0284
16,AGTGTCAT,-0.0592
17,AAGATAAA,0.108
18,GCTTCACC,-0.256
19,CTCATCAG,-0.0374
20,AGGACCGA,0.0447
21,CAGCGTGA,-0.0803
22,AGGATTTA,-0.0924
23,ATGTTTAG,0.0586
24,TCTCCCAA,-0.226
25,AAGCGGTA,0.138

row,Sequence,PBM E-score
1,ACGCGAGG,0.219
2,CCTCTATC,-0.122
3,ATCCTCAG,-0.187
4,CGCCTCGA,-0.0127
5,AACAAAGC,0.00917
6,ATCTTGTG,-0.214
7,AAGGAAGT,-0.209
8,CATAACCG,0.133
9,CCCCGGCC,-0.347
10,CCACCGCA,0.0444
11,TACATTCA,-0.208
12,TACAGACA,0.203
13,GGTTTTAC,0.0509
14,CCTTCCGA,-0.192
15,TGACGACA,0.0658
16,CCCGCGCA,-0.0994
17,ACGCAAAA,0.182
18,CCCCTACA,-0.345
19,AGTTTCAT,0.0688
20,GCAGCATA,-0.188
21,CTTCGAAG,-0.0578
22,GATCGTGC,0.0519
23,GAAAAGCA,0.0175
24,CACCAGAC,0.00853
25,AACGGTAG,0.231

row,Sequence,PBM E-score
1,GCACTGGC,-0.105
2,ATGCTTAC,-0.0957
3,CATGCGAC,0.141
4,CAAATTTA,-0.0396
5,ACTCGTCC,-0.141
6,GAGCACAA,-0.0319
7,CCGCCGCC,-0.0404
8,GCAAGCAA,-0.0268
9,AATTGGAG,-0.158
10,ACAGGGAC,-0.0357
11,CTCCGTGC,-0.251
12,TAAACCCA,-0.0418
13,CTTATCGA,0.0265
14,AGCTCCAT,-0.216
15,GGTATATA,0.152
16,ACACTATA,0.0283
17,CATGAGGC,-0.218
18,GTCTATAA,0.0937
19,ATCAACAG,-0.245
20,AGATAGAA,-0.0894
21,ACAAATCG,-0.0678
22,AAGATAGG,-0.16
23,AGCATATG,-0.102
24,ATTGGGGC,-0.313
25,AAGGCCCG,0.0667

row,Sequence,PBM E-score
1,GCTTCTGA,0.0116
2,AGACATGA,-0.203
3,GGAACTTA,0.113
4,AAGAGCGT,0.179
5,ATTCACAC,-0.179
6,GCTACGCA,0.204
7,GCGATGCC,0.0858
8,GTGAGCAA,-0.0436
9,CCTAGGAC,-0.279
10,GAGTCAGC,-0.101
11,CCCCTCAC,-0.178
12,CTTCTGGA,-0.224
13,AGAATTCA,-0.128
14,AGGGCCAG,-0.241
15,TGCTTCCA,-0.202
16,ACTGCAGT,-0.141
17,GGCCTCCC,-0.183
18,ACTCCCAT,-0.133
19,ATTGACTG,-0.144
20,TTATACAA,0.0521
21,ATTTTCGG,0.0581
22,CCGGGACG,-0.248

# Reference: the supplement of paper PMC3334620
